Assay results from PubChem BioAssay AID1159614 (National Center for Advancing Translational Sciences (NCATS), 2016).
Hit rate of the full screen: of about 45,000 compounds, about 65 (0.1%) were called active. Calls come from the whole dose curve; as a rule, active = well fitted activation curve with a large enough effect; inconclusive = small, poorly fitted or top-dose-only effect; inactive = no such curve, though single readings can be large or run the other way. This is one part of the list.

Biological target: Galactocerebrosidase (Homo sapiens) (UniProt P54803)
Sequence of UniProt P54803 (P54803 whole entry, looked up): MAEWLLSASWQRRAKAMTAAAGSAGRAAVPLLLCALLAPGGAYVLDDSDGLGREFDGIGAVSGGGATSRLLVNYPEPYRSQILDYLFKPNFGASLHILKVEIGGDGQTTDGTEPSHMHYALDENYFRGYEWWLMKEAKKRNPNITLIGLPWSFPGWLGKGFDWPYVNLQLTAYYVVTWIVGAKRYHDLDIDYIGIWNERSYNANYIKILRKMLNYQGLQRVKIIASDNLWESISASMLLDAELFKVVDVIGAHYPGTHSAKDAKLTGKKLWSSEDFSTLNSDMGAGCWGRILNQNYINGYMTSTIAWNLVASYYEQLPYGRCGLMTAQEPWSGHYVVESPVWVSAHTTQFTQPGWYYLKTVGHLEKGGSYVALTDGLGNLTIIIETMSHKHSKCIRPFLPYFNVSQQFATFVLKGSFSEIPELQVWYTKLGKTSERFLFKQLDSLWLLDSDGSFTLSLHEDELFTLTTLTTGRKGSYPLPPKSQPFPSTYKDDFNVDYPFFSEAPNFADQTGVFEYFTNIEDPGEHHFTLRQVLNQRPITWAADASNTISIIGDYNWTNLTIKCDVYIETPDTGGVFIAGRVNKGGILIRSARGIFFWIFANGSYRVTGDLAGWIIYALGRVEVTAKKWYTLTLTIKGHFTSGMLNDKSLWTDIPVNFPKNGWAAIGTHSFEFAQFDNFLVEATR
Test: A Novel Cell-Based Assay to Identify Small Molecules for B -Galactocerebrosidase; note: 0% is about no effect; nearly all actives have a fitted effect of over 65% in size
Conditions: 145M-Twi-hGALC-G270D cells, HMU-beta-Gal fluorescence, 48 h; series mostly up to 57.5 µM; activation: at the top concentration
How it was run: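 qHTS, 1536-well; 145M-Twi-hGALC-G270D cells (WT line also made) in DMEM/F12 + 10% FBS; compound incubation on live cells; HMU-β-gal 0.1 mM final, pH 5.2, NaTC; carbonate stop; fluorescence increase = enhanced residual activity.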

activation, inactive:
Cc1c(Cl)cccc1NC(=O)CC1Oc2ccccc2NC1=O (centres undefined) -13.3%, CCOc1ccccc1C(=O)N(Cc1ccco1)Cc1ccco1 -3.14%, O=C(c1ccc2c(c1)N(Cc1ccccc1F)C(=O)c1ccccc1S2(=O)=O)N1CCC(Cc2ccccc2)CC1 -8.8%, COc1ccc(-c2cc(C(=O)Nc3c(C(=O)c4ccc(C)cc4)oc4ccccc34)no2)cc1 -3.79%, O=C(Cn1c(=O)n(Cc2nc(-c3ccccc3)no2)c(=O)c2ccccc21)Nc1cccc(C(F)(F)F)c1 -21.2%, COc1ccccc1CNC(=O)C1CCCN(S(=O)(=O)c2ccc3c(c2)oc(=O)n3C)C1 (centres undefined) -20.8%, Cc1cccc2sc(N(Cc3cccnc3)C(=O)CCc3ccccc3)nc12 -47.2%, CCOC(=O)c1ccc(N2C(=O)c3[nH]nc(-c4ccccc4)c3C2c2ccc(CC)cc2)cc1 (centres undefined) -13.7%, O=C(CSc1nccn1Cc1ccccc1)NCc1ccco1 -16.9%, CCOC(=O)c1cc(-c2ccc(OC)cc2)n(CCC(=O)Nc2ccccc2OC)c1C 2.03%, COc1ccc(Cn2c(CCC(=O)Nc3cc(OC)c(OC)c(OC)c3)nc3cccnc32)cc1 -29.8%, CCOc1ccc(NCc2cccn2-c2nnc(N3CCC(C(=O)NCC(C)c4ccccc4)CC3)s2)cc1 (centres undefined) -14.8%, CCOc1ccccc1NC(=O)CN1C(=O)COc2ccc(S(=O)(=O)N3CCOCC3)cc21 -15.4%, O=C(CCCn1c(=O)c2cccn2c2ccccc21)Nc1cc(C(F)(F)F)ccc1Cl -11.9%, Cn1cc(-c2cc3n(n2)CCC(=O)N3CCCC(=O)NCc2ccc(Cl)cc2)c2ccccc21 -25.9%, CCC(CC)C(=O)OCc1cc(=O)n2nc(C3CC3)sc2n1 0.11%, CC1=C(c2ccc(Cl)cc2)S(=O)(=O)NC1=NCCCN1CCN(c2cc(C)ccc2C)CC1 -16.1%, CC1C(=O)Nc2ccc(S(=O)(=O)N3CCCCC3)cc2NC1=O (centres undefined) 21.3%, CCN(c1ccccc1)S(=O)(=O)c1ccc(NC(=O)c2nc(SC)ncc2Cl)cc1 -19.3%, CCN(CC)c1ccc(NC(=O)C2CCN(c3nnc(-n4cccc4)s3)CC2)c(C)c1 -22.2%, Cc1cc(C)n(C(C)CC(=O)Nc2cccc(C(F)(F)F)c2)n1 (centres undefined) -16.5%, CCc1ccccc1NC(=O)CSc1nc(-c2cccc(Cl)c2)nc2c1Cc1c(CO)cnc(C)c1O2 -6.71%, COc1cc(/C=C(\C#N)C(=O)NCC2CCCO2)ccc1O (centres undefined) -15.3%, O=C(Nc1cc(-c2nc3ccccc3o2)ccc1Cl)c1sc2c([N+](=O)[O-])cccc2c1Cl -2.89%, CCOc1ccc(CN2CCc3nc(N4CCN(c5ccccc5OC)CC4)ncc3C2)cc1OC -4.82%, CC(C)(C)OC(=O)N1CCC(c2c(C(=O)NCc3cccc(Cl)c3)cnn2-c2ccc(F)cc2)CC1 -4.18%, COc1ccc(-c2nc(SCC(=O)NC3CCCC3)c(-c3ccc(F)cc3)[nH]2)cc1 -37.6%, COc1ccc(-n2c(-c3ccc(C)cc3)cc3c2CC(C)(C)CC3=O)cc1Cl 5.3%, Cc1ccccc1C(=O)Nc1nnc(S(=O)(=O)N(C)Cc2ccccc2)s1 -14.5%, O=C(NCCCN1CCCCC1)c1sc2ncccc2c1-n1cccc1 -27.2%, CC1CCN(C(=O)Cn2c(=O)n(CC3CCC(C(=O)NC(C)C)CC3)c(=O)c3sccc32)CC1 (centres undefined) -14.3%, COc1ccc(S(=O)(=O)NCC(c2ccco2)S(=O)(=O)c2ccc(C)cc2)cc1F (centres undefined) -0.53%, CCn1nc(C)c2c(-c3ccccc3)cc(=O)n(C(C)C(=O)NCCC(C)C)c21 (centres undefined) -33.1%, CC(C)c1ccc(Cn2c(COc3ccccc3)nc3ccccc32)cc1 -19%, O=C(COc1ccccc1F)Nc1ccc2nc(SCCOc3ccccc3)sc2c1 -6.18%, Cc1ccc(NC(=O)Cn2c(=O)n(Cc3nc(-c4ccccc4)no3)c(=O)c3cc4c(cc32)OCO4)cc1F -13.2%, COc1ccc(NC(=O)CC2C(=O)N(c3cccc(OC)c3)C(=O)N2CCc2cccs2)cc1 (centres undefined) -11.1%, CC(=O)Nc1ccc(NC(=O)CCc2nc3cccnc3n2Cc2cccs2)cc1 11.8%, CC1CCN(Cc2c(O)ccc3c(=O)c(Oc4ccccc4Cl)c(C(F)(F)F)oc23)CC1 -11.7%, Cc1ccc(NC(=O)Cn2nc(C(=O)Nc3ccc(C)cc3)ccc2=O)cc1 -9.95%, COc1ccc(CNS(=O)(=O)c2ccc(N3CCCCS3(=O)=O)cc2)cc1 -8.29%, CCc1ccc(OC(C)C(=O)N2CCC(c3nc4ccccc4o3)CC2)cc1 (centres undefined) -26%, Cc1ccc(C(=O)Nc2ccc3c(c2)n(C)c(=O)c(=O)n3C)cc1 -15.6%, COc1ccc2c(c1)c1c(c(=O)n(Cc3ccccc3)c(=O)n1Cc1cc(C)ccc1C)n2C -7.31%, COc1ccc(NC(=O)Cc2coc3cc(C)cc(C)c23)c(OC)c1 -15.6%, Cc1nn2c(=O)cc(COC(=O)c3ccccc3NC(=O)c3ccccc3C)nc2s1 -3.22%, COc1cccc(OCc2nc3ccccc3n2CCOc2ccccc2)c1 -8.58%, Cc1ccc(CN2CCCn3nc(C(=O)NCCN(C)C)cc3C2=O)cc1 -16%, COC(=O)c1c(NC(=O)CCCOc2ccc(C)cc2)sc2c1C(C(=O)OC)CC2 (centres undefined) -14.9%, CCc1cccc(CC)c1NC(=O)c1cc(S(=O)(=O)N2CCc3ccccc32)cn1C -20.2%, COc1ccc(-c2ccc(NS(=O)(=O)c3ccc(F)c(C(F)(F)F)c3)cc2)nn1 3.5%, Cc1ccc(C)c(OCCSc2nc3ccccc3n2CC(=O)N2CCOCC2)c1 -24.7%, CCOC(=O)c1c(C)[nH]c(C)c1S(=O)(=O)N1CCC(C(=O)NCc2ccccc2)CC1 -9.5%, O=C(Cn1c(=O)nc(-c2ccccc2)c2cc(Cl)ccc21)NCc1ccccc1 0.432%, Cn1nc(-c2ccc(OCC(=O)Nc3ccccc3)cc2)c2ccccc2c1=O -7.22%, CCOC(=O)c1ccc2c(c1)N(Cc1cccc([N+](=O)[O-])c1)C(=O)c1ccccc1S2 1.97%, CC(C)C[C@H](NC(=O)[C@H](CCc1ccccc1)NC(=O)CN1CCOCC1)C(=O)N[C@@H](Cc1ccccc1)C(=O)N[C@@H](CC(C)C)C(=O)[C@@]1(C)CO1 -3.13%, Cc1ccc(S(=O)(=O)N2CCCC(c3nc4c(nnn4Cc4ccc(OC(F)(F)F)cc4)c(=O)[nH]3)C2)cc1 (centres undefined) -13.4%, CN(Cc1ccccc1)C(=O)c1cc2c(=O)n(C)c3ccccc3c2s1 -7.48%, CCOC(=O)N1CCc2c(sc3c2c(=O)n(Cc2ccccc2)c(=O)n3Cc2c(F)cccc2Cl)C1 -1.72%, O=C1CC(c2nc3ccccc3n2Cc2c(F)cccc2Cl)CN1c1cccc(C(F)(F)F)c1 (centres undefined) -0.552%, CSc1cccc(N2C(=O)N(Cc3ccc([N+](=O)[O-])cc3)c3ccccc3S2(=O)=O)c1 3.27%, COCCNC(=O)c1cc2n(n1)CCCN(Cc1ccc(C)cc1)C2=O -18%, CC(=O)Cn1nnc2sc(-c3ccccc3)cc2c1=O -3.95%, Cc1c(Cl)cccc1Nc1sc(C(=O)c2ccccc2)c(N)c1S(=O)(=O)c1ccccc1 -12.5%, COc1ccc(NC(=O)CC2C(=O)N(c3ccc(C)cc3)C(=O)N2CCc2ccccc2)cc1 (centres undefined) -7.54%, COc1ccc(CC(=O)Nc2c(C(=O)Nc3ccccc3F)oc3ccccc23)cc1 -12.5%, Cc1ccccc1NC(=O)c1sc2nc(-c3ccncc3)ccc2c1N -16.7%, O=C(O)c1[nH]n(-c2ccc(S(=O)(=O)O)cc2)c(=O)c1N=Nc1ccc(S(=O)(=O)O)cc1 -16.6%, Brc1ccc(-c2cc3c(N4CCN(c5ccccc5)CC4)nccn3n2)cc1 0.761%, COCCCNC(=O)CCCn1c(=O)c2cccn2c2cccnc21 -20.2%, Cc1nc(C)c(-c2ccc(SCC(=O)Nc3ccccc3F)nn2)s1 -8.44%, Cc1cc2ccccc2n1-c1ccc(C(=O)N2CCCCC2)s1 -12.1%, COc1cccc(CNC(=O)CCNS(=O)(=O)c2cccc3nsnc23)c1 2.7%, CCOC(=O)c1ccc(N2C(=O)c3n[nH]c(-c4cccs4)c3C2c2ccc(C)cc2)cc1 (centres undefined) -9.02%, CCCN(CCC)CCCNC(=O)Cn1ncc2c3ccccc3n(Cc3ccc(F)cc3)c2c1=O -16.4%, CCCCOc1cccc(C(=O)Nc2cc3nn(-c4ccc(F)cc4)nc3cc2C)c1 -26.1%, CCOC(=O)c1[nH]c2ccccc2c1NC(=O)c1ccc(OC(C)C)cc1 -18.7%, COc1cc(OC)cc(C(=O)Nc2ccc(S(=O)(=O)Nc3cc(C)nc(C)n3)cc2)c1 -11.8%, CCn1cc(S(=O)(=O)c2ccccc2)c(=O)c2cc(C)ccc21 -10.7%, O=C(CSc1nccn1-c1ccc(Cl)cc1)Nc1nc2ccccc2s1 -11.3%, COc1cc(NC(=O)c2cc3c(=O)oc4ccc(C)cc4c3s2)cc(OC)c1OC -22%, CC(C)(CC(=O)OCC(=O)Nc1ccc(F)c(Cl)c1)CC1=NS(=O)(=O)c2ccccc2N1 2.11%, CCCCn1c(COc2cccc(OC)c2)nc2ccccc21 -18%, COc1ccc(CCN2CC(C(=O)NCCc3ccc(C)cc3)CC2=O)cc1OC (centres undefined) 5.64%, CCN(C(=O)Cn1ncc2c1-c1cc(C)ccc1OC2)c1cc(Cl)ccc1OC -3.44%, CCc1ccccc1NC(=O)CSc1ncc2c(n1)-c1ccccc1N(Cc1ccc(C)cc1)S2(=O)=O -12%, Cc1nc(-c2ccccc2)sc1CCNC(=O)c1ccco1 -10.8%, COc1cccc(CNC(=O)CCc2c(C)c3cc4c(C)c(C)oc4cc3oc2=O)c1 -9.66%, CCOC(=O)c1ccccc1NS(=O)(=O)c1c(-c2ccc(C)cc2)csc1C(=O)OC -1.06%, CCN(Cc1ccccc1)C(=O)CCNS(=O)(=O)c1ccc2c(c1)CC(C)N2C(C)=O (centres undefined) -12.4%, COc1ccccc1CNS(=O)(=O)c1c(C)nc2sccn2c1=O -6.58%, Cc1ccc(S(=O)(=O)c2cn(Cc3ccccc3)c3cc(N4CCCC4)c(F)cc3c2=O)cc1C -14.2%

Potency, inactive:
NC(=O)N/N=C/c1ccc([N+](=O)[O-])o1
